# According to the supplement of paper PMC10037445:
# Whole data set: some 2,900 compounds, median “NF-kB SEAP reporter activity, fold change vs agonist alone” near 0.99, cut for the highest 2% near 2.6. The list shows a part of the results.
# Assays:
# RAW-Dual [1] = assay: NF-kB SEAP reporter activity, fold change vs agonist alone; cytotoxicity flag (confluency mask): not cytotoxic; higher = enhanced NF-kB activity
# Method in brief: (§1)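 Reporter activity is given as fold change relative to agonist-alone wells. To measure it, 50 nL of library stock was pin-tooled onto RAW-Dual macrophages (50,000 cells/well, DMEM, 384-well plates), a PRR agonist followed 1 h later, and cells stayed at 37 °C, 5% CO2. Twenty hours on, supernatant was assayed for IRF (QuantiLuc luminescence) and NF-κB (QuantiBlue, 620 nm absorbance), and wells under 70% of agonist-control IncuCyte confluency in both mask sets were marked cytotoxic.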
# RAW-Dual [2] = assay: NF-kB SEAP reporter activity, fold change vs agonist alone; higher = enhanced NF-kB activity
# Method in brief: as §1
# RAW-Dual [3] = assay: NF-kB SEAP reporter activity, fold change vs agonist alone; cytotoxicity flag (confluency mask): cytotoxic (confluency <70% of control); higher = enhanced NF-kB activity
# Method in brief: as §1
# [4] = agonist: ODN 1826 (TLR9) 0.5 ug/mL
# [5] = agonist: Pam2CSK4 (TLR2/6) 0.1 ug/mL
# [6] = agonist: Pam3CSK4 (TLR2/1) 0.1 ug/mL
# [7] = library stock concentration (final ~1000-fold dilution): 10 mM, cytotoxicity flag (confluency mask): not cytotoxic, agonist: MPLA (TLR4) […]
# [8] = library stock concentration (final ~1000-fold dilution): 10 mM, cytotoxicity flag (confluency mask): not cytotoxic, agonist: Imiquimod (TLR7) […]
smiles,measurement,setting,value
CC(=O)N1CCCC1C(=O)NC(Cc1c[nH]cn1)C(=O)NC(CO)C(=O)NC(CS)C(=O)NC(CC(N)=O)C(N)=O (stereo not given) (library stock concentration (final ~1000-fold dilution): 10 mM water),NF-kB SEAP reporter activity,RAW-Dual [1]; agonist: LPS (TLR4) 0.1 ug/mL,1.15
same,NF-kB SEAP reporter activity,RAW-Dual [1]; [4],1.22
same,NF-kB SEAP reporter activity,RAW-Dual [1]; [5],1.19
same,NF-kB SEAP reporter activity,RAW-Dual [1]; [6],1.02
CC(=O)N1CCCC1C(=O)NC(Cc1c[nH]cn1)C(=O)NC(CO)C(=O)NC(CS)C(=O)NC(CC(N)=O)C(N)=O (stereo not given),NF-kB SEAP reporter activity,"RAW-Dual [2]; library stock concentration (final ~1000-fold dilution): 10 mM water, cytotoxicity flag (confluency mask): not cytotoxic, agonist: Imiquimod (TLR7) […]",0.979
same,NF-kB SEAP reporter activity,"RAW-Dual [2]; library stock concentration (final ~1000-fold dilution): 10 mM water, cytotoxicity flag (confluency mask): not cytotoxic, agonist: MPLA (TLR4) […]",1.06
Cc1ccc(/C(=C\CN2CCCC2)c2ccccn2)cc1.Cl.O (library stock concentration (final ~1000-fold dilution): 10 mM),NF-kB SEAP reporter activity,RAW-Dual [1]; agonist: LPS (TLR4) 0.1 ug/mL,1.18
same,NF-kB SEAP reporter activity,RAW-Dual [1]; [4],0.919
same,NF-kB SEAP reporter activity,RAW-Dual [1]; [5],0.77
same,NF-kB SEAP reporter activity,RAW-Dual [1]; [6],0.923
Cc1ccc(/C(=C\CN2CCCC2)c2ccccn2)cc1.Cl.O,NF-kB SEAP reporter activity,RAW-Dual [2]; [7],1.01
NS(=O)(=O)c1ccc(NC(=O)Nc2ccc(F)cc2)cc1,NF-kB SEAP reporter activity,RAW-Dual [2]; [8],0.976
same,NF-kB SEAP reporter activity,RAW-Dual [2]; [7],1.01
NS(=O)(=O)c1ccc(NC(=O)Nc2ccc(F)cc2)cc1 (library stock concentration (final ~1000-fold dilution): 10 mM),NF-kB SEAP reporter activity,RAW-Dual [1]; agonist: LPS (TLR4) 0.1 ug/mL,0.964
same,NF-kB SEAP reporter activity,RAW-Dual [1]; [4],0.955
same,NF-kB SEAP reporter activity,RAW-Dual [1]; [5],0.766
same,NF-kB SEAP reporter activity,RAW-Dual [1]; [6],0.963
CC(Cn1cnc2c(N)ncnc21)OCP(=O)(O)O (stereo not given),NF-kB SEAP reporter activity,RAW-Dual [2]; [8],0.921
same,NF-kB SEAP reporter activity,RAW-Dual [2]; [7],0.961
CC(Cn1cnc2c(N)ncnc21)OCP(=O)(O)O (stereo not given) (library stock concentration (final ~1000-fold dilution): 10 mM),NF-kB SEAP reporter activity,RAW-Dual [1]; agonist: LPS (TLR4) 0.1 ug/mL,0.98
same,NF-kB SEAP reporter activity,RAW-Dual [1]; [4],1.02
same,NF-kB SEAP reporter activity,RAW-Dual [1]; [5],0.962
same,NF-kB SEAP reporter activity,RAW-Dual [1]; [6],0.961
FC(F)(F)Oc1ccc(-c2ccc3nnc(C(F)(F)F)n3c2)cc1 (library stock concentration (final ~1000-fold dilution): 10 mM),NF-kB SEAP reporter activity,RAW-Dual [1]; agonist: LPS (TLR4) 0.1 ug/mL,1.08
same,NF-kB SEAP reporter activity,RAW-Dual [1]; [4],0.832
same,NF-kB SEAP reporter activity,RAW-Dual [1]; [5],0.744
same,NF-kB SEAP reporter activity,RAW-Dual [1]; [6],0.732
FC(F)(F)Oc1ccc(-c2ccc3nnc(C(F)(F)F)n3c2)cc1,NF-kB SEAP reporter activity,RAW-Dual [2]; [7],0.877
CC1CCN(C(=O)CC#N)CC1N(C)c1ncnc2[nH]ccc12 (stereo not given),NF-kB SEAP reporter activity,RAW-Dual [2]; [8],1.31
same,NF-kB SEAP reporter activity,RAW-Dual [2]; [7],1.05
CC1CCN(C(=O)CC#N)CC1N(C)c1ncnc2[nH]ccc12 (stereo not given) (library stock concentration (final ~1000-fold dilution): 10 mM),NF-kB SEAP reporter activity,RAW-Dual [1]; agonist: LPS (TLR4) 0.1 ug/mL,0.799
same,NF-kB SEAP reporter activity,RAW-Dual [1]; [4],1.27
same,NF-kB SEAP reporter activity,RAW-Dual [1]; [5],1.33
same,NF-kB SEAP reporter activity,RAW-Dual [1]; [6],1.51
O=C(O)CCCC[C@@H]1CCSS1,NF-kB SEAP reporter activity,RAW-Dual [2]; [8],0.941
same,NF-kB SEAP reporter activity,RAW-Dual [2]; [7],1.03
O=C(O)CCCC[C@@H]1CCSS1 (library stock concentration (final ~1000-fold dilution): 10 mM),NF-kB SEAP reporter activity,RAW-Dual [1]; agonist: LPS (TLR4) 0.1 ug/mL,1.54
same,NF-kB SEAP reporter activity,RAW-Dual [1]; [4],1.05
same,NF-kB SEAP reporter activity,RAW-Dual [1]; [5],1.18
same,NF-kB SEAP reporter activity,RAW-Dual [1]; [6],1.09
COc1cc2ccc(=O)oc2cc1O,NF-kB SEAP reporter activity,RAW-Dual [2]; [8],1
same,NF-kB SEAP reporter activity,RAW-Dual [2]; [7],1.09
COc1cc2ccc(=O)oc2cc1O (library stock concentration (final ~1000-fold dilution): 10 mM),NF-kB SEAP reporter activity,RAW-Dual [1]; agonist: LPS (TLR4) 0.1 ug/mL,1.25
same,NF-kB SEAP reporter activity,RAW-Dual [1]; [4],1.02
same,NF-kB SEAP reporter activity,RAW-Dual [1]; [5],1.23
same,NF-kB SEAP reporter activity,RAW-Dual [1]; [6],1.13
CCNc1nc(Nc2cc(F)c(C(=O)N3CCOCC3)cc2OC)ncc1C(F)(F)F (library stock concentration (final ~1000-fold dilution): 10 mM),NF-kB SEAP reporter activity,RAW-Dual [1]; agonist: LPS (TLR4) 0.1 ug/mL,0.855
same,NF-kB SEAP reporter activity,RAW-Dual [1]; [4],0.831
same,NF-kB SEAP reporter activity,RAW-Dual [1]; [5],0.871
same,NF-kB SEAP reporter activity,RAW-Dual [1]; [6],0.8
CCNc1nc(Nc2cc(F)c(C(=O)N3CCOCC3)cc2OC)ncc1C(F)(F)F,NF-kB SEAP reporter activity,RAW-Dual [2]; [8],1.12
same,NF-kB SEAP reporter activity,RAW-Dual [2]; [7],1.23
Cc1ccc(-c2ccc(C)cn2)nc1,NF-kB SEAP reporter activity,RAW-Dual [2]; [8],0.9
same,NF-kB SEAP reporter activity,RAW-Dual [2]; [7],1
Cc1ccc(-c2ccc(C)cn2)nc1 (library stock concentration (final ~1000-fold dilution): 10 mM),NF-kB SEAP reporter activity,RAW-Dual [1]; agonist: LPS (TLR4) 0.1 ug/mL,1.11
same,NF-kB SEAP reporter activity,RAW-Dual [1]; [4],0.777
same,NF-kB SEAP reporter activity,RAW-Dual [1]; [5],0.881
same,NF-kB SEAP reporter activity,RAW-Dual [1]; [6],0.793
CCCCCOc1ccc(-c2ccc(-c3ccc(C(=O)NC4CC(O)C(O)NC(=O)C5C(O)C(C)CN5C(=O)C(C(C)O)NC(=O)C(C(O)C(O)c5ccc(O)cc5)NC(=O)C5CC(O)CN5C(=O)C(C(C)O)NC4=O)cc3)cc2)cc1 (stereo not given),NF-kB SEAP reporter activity,"RAW-Dual [2]; library stock concentration (final ~1000-fold dilution): 10 mM, cytotoxicity flag (confluency mask): cytotoxic (confluency <70% of control), agonist: Imiquimod (TLR7) […]",1.67
same,NF-kB SEAP reporter activity,"RAW-Dual [2]; library stock concentration (final ~1000-fold dilution): 10 mM, cytotoxicity flag (confluency mask): cytotoxic (confluency <70% of control), agonist: MPLA (TLR4) […]",2.43
CCCCCOc1ccc(-c2ccc(-c3ccc(C(=O)NC4CC(O)C(O)NC(=O)C5C(O)C(C)CN5C(=O)C(C(C)O)NC(=O)C(C(O)C(O)c5ccc(O)cc5)NC(=O)C5CC(O)CN5C(=O)C(C(C)O)NC4=O)cc3)cc2)cc1 (stereo not given) (library stock concentration (final ~1000-fold dilution): 10 mM),NF-kB SEAP reporter activity,RAW-Dual [3]; agonist: LPS (TLR4) 0.1 ug/mL,3.72
same,NF-kB SEAP reporter activity,RAW-Dual [3]; [4],0.545
same,NF-kB SEAP reporter activity,RAW-Dual [3]; [5],1.28
same,NF-kB SEAP reporter activity,RAW-Dual [3]; [6],1.42
COc1ccc(-c2coc3cc(O[C@@H]4O[C@H](CO)[C@@H](O)[C@H](O)[C@H]4O)ccc3c2=O)cc1O,NF-kB SEAP reporter activity,RAW-Dual [2]; [8],1.52
same,NF-kB SEAP reporter activity,RAW-Dual [2]; [7],1.6
COc1ccc(-c2coc3cc(O[C@@H]4O[C@H](CO)[C@@H](O)[C@H](O)[C@H]4O)ccc3c2=O)cc1O (library stock concentration (final ~1000-fold dilution): 10 mM),NF-kB SEAP reporter activity,RAW-Dual [1]; agonist: LPS (TLR4) 0.1 ug/mL,1.76
same,NF-kB SEAP reporter activity,RAW-Dual [1]; [4],1.27
same,NF-kB SEAP reporter activity,RAW-Dual [1]; [5],1.26
same,NF-kB SEAP reporter activity,RAW-Dual [1]; [6],2.04
CNC(=O)c1ccc2cc(C3(O)CCn4cncc43)ccc2c1 (stereo not given) (library stock concentration (final ~1000-fold dilution): 10 mM),NF-kB SEAP reporter activity,RAW-Dual [1]; agonist: LPS (TLR4) 0.1 ug/mL,1.22
same,NF-kB SEAP reporter activity,RAW-Dual [1]; [4],1.01
same,NF-kB SEAP reporter activity,RAW-Dual [1]; [5],1.02
same,NF-kB SEAP reporter activity,RAW-Dual [1]; [6],1.15
CNC(=O)c1ccc2cc(C3(O)CCn4cncc43)ccc2c1 (stereo not given),NF-kB SEAP reporter activity,RAW-Dual [2]; [8],0.916
same,NF-kB SEAP reporter activity,RAW-Dual [2]; [7],1.07
Cc1nc2ccc(NC(=O)Nc3ccnc4cccnc34)cc2o1 (library stock concentration (final ~1000-fold dilution): 10 mM),NF-kB SEAP reporter activity,RAW-Dual [1]; agonist: LPS (TLR4) 0.1 ug/mL,1.66
same,NF-kB SEAP reporter activity,RAW-Dual [1]; [4],1.06
same,NF-kB SEAP reporter activity,RAW-Dual [1]; [5],1.23
same,NF-kB SEAP reporter activity,RAW-Dual [1]; [6],0.988
